Test results taken from PubChem BioAssay AID1508623 (National Center for Advancing Translational Sciences (NCATS), 2021).
The whole screen tested about 48,000 compounds, of which about 450 (0.94%) were called active. About 19% were inconclusive and are not listed. Calls come from the whole dose curve; as a rule, active = well fitted inhibition curve with a large enough effect; inconclusive = small, poorly fitted or top-dose-only effect; inactive = no such curve, though single readings can be large or run the other way. The list shows a part of the results.

assay: Primary qHTS for Identification of Small Molecule Inhibitors of Huntingtin Promoter Activity; conditions: HEK293 HTT promoter firefly luciferase reporter (activity 0% = vehicle and -100% = no light), 24 h; series mostly up to 57.5 µM; activity change, negative = inhibition: at the top concentration; note: nearly all actives have a fitted effect of over 50% in size
How it was run: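 Luminescence was read after Dual-Glo reagent and a 10 min room-temperature incubation. Values were normalized to vehicle (0% activity) and zero RLU (-100% activity). Reporter HEK293 cells had been exposed to compounds (up to 57.5 uM final) for 24 h.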

Compound	activity change, negative = inhibition
COC(=O)c1ccccc1NC(=O)Cn1c(=O)n(CCCC(=O)NCc2ccccc2OC)c(=O)c2ccccc21	inactive: -5.48%
Cc1ccc(C)c(NC(=O)C(c2ccccc2)N2Cc3ccccc3C2=O)c1 (centres undefined)	inactive: -27.8%
CC(=O)c1ccc(NC(=O)c2nc3nc(C)cc(C(F)F)n3n2)cc1	inactive: -12.6%
CCOc1ccc(-n2nc(CO)c(C(=O)NCc3cccc(OC)c3)n2)cc1	inactive: 5.47%
Cc1cc(C)cc(-n2ccn(CC(=O)Nc3ccccc3F)c(=O)c2=O)c1	inactive: -2.63%
COc1cc2cc(CNc3ccccc3)c(=O)n(CC(=O)Nc3cc(C)cc(C)c3)c2cc1OC	inactive: -18.1%
O=C(CCC1N=C2c3ccccc3N=C(SCc3ccc(F)cc3)N2C1=O)NC1CCCCC1 (centres undefined)	inactive: -11%
Cc1ccc(-c2cc(C(F)(F)F)nn2-c2ccc(S(N)(=O)=O)cc2)cc1	inactive
COc1ccccc1NC(=O)C1CCN(c2cnccn2)CC1	inactive: -7.38%
CSc1ncc(C(=O)Nc2cc(Cl)ccc2C)c(-c2ccccc2)n1	inactive: -11%
Cc1cn2c(=O)cc(COc3ccccc3NC(=O)c3ccc(Cl)cc3)nc2s1	inactive: -6.85%
CCOC(=O)c1ccc(NC(=O)CSc2nc3c([nH]c4ccccc43)c(=O)n2C)cc1	inactive: -22.5%
Cc1ccccc1-c1noc(-c2cc(-c3ccc(F)cc3)n[nH]2)n1	inactive: 23.9%
Cc1cc(C)cc(NC(=O)C2CCN(S(=O)(=O)c3ccc4c(c3)oc(=O)n4C)CC2)c1	inactive: -12%
CCCCc1nc2ccccc2n1CC(=O)N(COCC)c1c(C)cccc1CC	inactive: -16.7%
CC(C)c1ccc(Nc2c(-c3ccco3)nc3ccccn23)cc1	inactive: -1.96%
COc1cc(NC(=O)c2ccc(-n3cnc4cccnc43)cc2)cc(OC)c1	inactive: -12.8%
COc1ccc(/C=C/C(=O)Nc2ccc3nc(N4CCCCC4)cc(C)c3c2)cc1OC	inactive: -26.9%
O=C(Nc1ccc(NC(=O)c2ccc(Br)cc2)c(Cl)c1)c1ccc(Br)cc1	inactive: -16.1%
COc1ccccc1-c1nnc(C2CCN(S(=O)(=O)c3ccccc3)CC2)o1	inactive: -15.7%
COc1ccc(C(=O)Nc2nc3ccc(S(=O)(=O)N4CCCC4)cc3s2)cc1	inactive: -9.66%
COc1cccc2cc(-c3nnc(-c4ccc(Cl)cc4)o3)c(=O)oc12	inactive: 21.5%
CCCCCn1c(=O)[nH]c2cc(C(=O)Nc3ccc(OC)c(OC)c3)ccc2c1=O	inactive: -6.61%
COc1cccc(-c2nc(CS(=O)(=O)CC(=O)NCCCN3CCN(C)CC3)c(C)o2)c1	inactive: 19.3%

Compound	activity change, negative = inhibition
Cc1cccc(Cn2c(SCc3ccc(C(=O)NCCc4ccccc4)cc3)nc3cccnc32)c1	inactive: -25.7%
CC(=O)Nc1ccc(S(=O)(=O)N2CCN(c3ccccc3)CC2)cc1	inactive: -26.9%
CC(=O)Nc1cccc(NC(=O)C2(c3cccs3)CCOCC2)c1	inactive: -5.69%
CCOC(=O)CC(=O)CSc1nc2ccccc2c(=O)n1CCc1ccccc1	inactive: -42.3%
Cn1c(=O)c(=O)n(C)c2cc(N3CCCC3)c(NC(=O)c3ccc(C(C)(C)C)cc3)cc21	inactive: -12.3%
Cc1cccc(NC(=O)CSc2cn(CC(=O)N3CCOCC3)c3ccccc23)c1	inactive: -5.17%
CCn1cc(C(=O)NCCOC)c(=O)c2cc(S(=O)(=O)N3CCOCC3)ccc21	inactive: -14.1%
CCSc1nnc2c(n1)OC(c1ccc(OCC(=O)O)cc1)Nc1ccccc1-2 (centres undefined)	inactive: 16.4%
O=C(CCC1N=C2c3ccccc3N=C(SCC(=O)Nc3ccccc3F)N2C1=O)NCc1cccs1 (centres undefined)	inactive: -1.84%
CCOC(=O)C1=C(c2ccccc2)Nc2ncnn2C1c1ccc(Cl)cc1 (centres undefined)	inactive: -16.2%
COc1ccc(CNC(=O)c2ccc3c(c2)NC(=O)C(CS(=O)(=O)Cc2ccccc2Cl)N3)cc1 (centres undefined)	inactive: -24.1%
CCOc1ccccc1CNC(=O)CN1C(=O)CCn2nc(-c3cn(C)c4ccccc34)cc21	inactive: 0%
O=C(c1ccc2c(c1)N(Cc1cccc(Cl)c1)C(=O)c1ccccc1S2(=O)=O)N1CCC(Cc2ccccc2)CC1	inactive: -41.9%
CSc1cccc(N2C(=O)N(CC(=O)NCc3ccccc3Cl)c3ccccc3S2(=O)=O)c1	inactive: -30%
CC(C)CCOc1ccc(Oc2nc(N(C)C)nc(N(C)C)n2)nn1	inactive: -3.09%
COc1ccccc1-n1ncc2c(=O)[nH]c(SCC(=O)Nc3cccc(F)c3)nc21	inactive: -25.2%
COc1ccc2c(CNCc3cccs3)c(C(=O)O)n(Cc3ccc(F)cc3Cl)c2c1	inactive: -23.4%
CCOc1ccccc1N(C)C(=O)Cn1cnc2onc(-c3ccc(F)cc3)c2c1=O	inactive: -0.14%
CCOc1ccc(C(=O)c2oc3ccccc3c2NC(=O)c2cc(-c3ccccc3)on2)cc1	inactive: -0.252%
Cc1ccc(NC(=O)C(Cc2ccccc2)n2cccc2)c(C)c1 (centres undefined)	inactive: -25.1%
CCCCCn1c(=N)c(S(=O)(=O)c2ccccc2)cc2c(=O)n3cccc(C)c3nc21	inactive: 1.1%
COc1ccc(NC(=O)CN(C)S(=O)(=O)c2ccc3c(c2)CCCN3C(C)=O)cc1Cl	inactive: -19.5%
CC(C)Oc1cccc(C(=O)Nc2ccc(-c3nc4cc(Cl)cc(Cl)c4o3)cc2)c1	inactive: -5.77%
Cc1nnc(SCc2ccccc2Cl)c2cc3occc3n12	inactive: 55.2%

Compound	activity change, negative = inhibition
COc1cc(-c2noc(-c3ccc(NC4CCCCC4)c([N+](=O)[O-])c3)n2)cc(OC)c1OC	inactive: -8.21%
COc1ccccc1C(=O)Nc1ccccc1SCc1cc(=O)c2ccccc2[nH]1	inactive: 14%
CCN(CC)C(=O)Cn1c(=O)n(CCCCCC(=O)NCc2ccccc2)c(=O)c2sccc21	inactive: -9.87%
O=C(c1ccc2c(c1)N(Cc1ccccc1F)C(=O)c1ccccc1S2=O)N1CCCCC1 (centres undefined)	inactive: -15.5%
c1cc(CN2CCCCC2)cc(OCCCNc2nc3ccccc3s2)c1	inactive: -9.19%
O=C(NC1CC(=O)N(c2ccc(F)cc2)C1)C1CCCCC1 (centres undefined)	inactive: 1.51%
CCOc1cc(/C=C(\C#N)C(=O)Nc2ccccc2C)ccc1OCc1cc(=O)n2nc(CC)sc2n1	inactive: 28.1%
CCOc1ccc(-c2csc(-c3nc(-c4ccc(Br)s4)cs3)n2)cc1	inactive: -13.4%
Cc1nnc(SCC(=O)NCc2ccc(N(C)C)cc2)c2nn(-c3ccccc3)c(C)c12	inactive: -25.9%
Cc1ccc(NC(=O)C2CCN(c3nnc(-n4cccc4)s3)CC2)cc1Cl	inactive: -20.2%
COc1cccc(C(c2c(O)cc(C)n(Cc3ccco3)c2=O)N2CCC(C)CC2)c1 (centres undefined)	inactive: 0.0599%
CNCC(O)c1ccc(O)c(O)c1 (centres undefined)	inactive: 11.3%
O=C(NCc1ccccc1)c1cc2ccccc2o1	inactive: 16.9%
COc1ccc(-c2nc(C)c(CCNC(=O)c3cc(OC)c(OC)c(OC)c3)s2)cc1OC	inactive: -1.29%
CC(C)CCNC(=O)c1cccc(-n2cnc3cccnc32)c1	inactive: -19.9%
Cc1ccc(C)c(N2CCN(S(=O)(=O)c3ccc4c(c3)CC(=O)N4C)CC2)c1	inactive: -16.2%
Cc1cccc(CS(=O)(=O)Cc2ccc(C(=O)NC(C)c3ccccc3)o2)c1 (centres undefined)	inactive: -18.3%
CCCN(C(=O)Cc1c(C(=O)O)[nH]c2ccc(Cl)cc12)c1ccc(OCC)cc1	inactive: -13%
CCOCCCNC(=O)c1[nH]c2cc(OC)ccc2c1Sc1ccccc1	inactive: -26.2%
COc1ccc(CCC(=O)NCc2nc3cccnc3n2Cc2ccc(C)cc2)cc1	inactive: -15.5%
Cc1ccc(S(=O)(=O)NCC(c2ccco2)N2CCN(c3ccccc3F)CC2)cc1 (centres undefined)	inactive: -12.4%
COC(=O)c1c(NC(=O)c2nc(SCc3ccc(C)cc3)ncc2Cl)sc2c1CCCC2	inactive: 5.15%
CCCN1C(=O)CN(C2CCCCC2)C(=O)C1c1ccc(OC)c(OC)c1 (centres undefined)	inactive: -1.94%
COc1ccc(NC(=O)Cn2c(=O)n(CCC(=O)NCCc3ccc(OC)c(OC)c3)c(=O)c3ccccc32)cc1Cl	inactive: -5.83%

Compound	activity change, negative = inhibition
Cc1ccc2c(=O)cc(C(=O)Nc3ccc(S(=O)(=O)Nc4onc(C)c4C)cc3)oc2c1	inactive: -13.1%
COc1cccc([C@@H]2Nc3ccc(C(=O)O)cc3[C@@H]3C=CC[C@@H]32)c1OC	inactive: -13.8%
Cc1cccc(-n2ncc(C(=O)N3CCN(C(=O)c4ccco4)CC3)c2C2CCN(C(=O)OC(C)(C)C)CC2)c1	inactive: 6.1%
CC(NC(=O)C(=O)Nc1c2c(nn1-c1ccccc1)CSC2)c1ccccc1 (centres undefined)	inactive: -19.9%
Cc1ccc2c(c1)c(=O)c(C(=O)c1ccncc1)cn2CC(=O)Nc1ccc(C(C)C)cc1	inactive: -29%
Cc1ccc(N2CC(NC(=O)c3ccc(Br)o3)CC2=O)cc1C (centres undefined)	inactive: -26.6%
COc1cccc(NC(=O)Cn2nc3c4ccccc4n(Cc4cccc(F)c4)cc-3c2=O)c1	inactive: -18.8%
Cc1nn(CCC(=O)NCc2ccc(N(C)C)cc2)c(=O)c2nn(-c3ccccc3)c(C)c12	inactive: -6.04%
Cc1nnc(N2CCN(c3ccccc3F)CC2)c2c1nnn2Cc1ccccc1Cl	inactive: -5.38%
CC(C)(C)c1ccc(C(=O)Nc2ccc(-c3nc4cc(Cl)ccc4o3)cc2)cc1	inactive: -36.3%
COc1ccc2nc3oc(C(=O)N(C)c4ccc(Cl)cc4)cc3cc2c1	inactive: -6.19%
CC(=O)Nc1ccccc1-c1nc2ccccc2n(C(C)C(=O)c2ccc(C)c(C)c2)c1=O (centres undefined)	inactive: -0.286%
CCOc1ccc(CC(=O)NC2CC(=O)N(c3ccc4c(c3)OCCO4)C2)cc1 (centres undefined)	inactive: -16.5%
NC[C@H]1O[C@H](O[C@H]2[C@H](O[C@@H]3O[C@H](CO)[C@@H](O)[C@H]3O)C(O)[C@H](N)C[C@@H]2N)[C@H](N)[C@@H](O)[C@@H]1O (some centres undefined)	inactive: 2.98% [at 11.5 µM]
CCN(c1ccccc1)S(=O)(=O)c1nnc(NC(=O)COc2ccccc2F)s1	inactive: -25.7%
COc1ccc(-c2[nH]ncc2C(=O)NCc2ccccc2OC)cc1	inactive: -23.1%
Cc1ccc(NC(=O)CN(C)S(=O)(=O)c2cccc3nsnc23)c(C)c1	inactive: -22.5%
CC(=O)Nc1ccc(S(=O)(=O)Nc2ccc3c(c2)n(C)c(=O)n3C)c(C)c1	inactive: 6.44%
Cc1cc(C)n(-c2nc3cc(Cl)c(Cl)cc3nc2Nc2c(C)cccc2C)n1	inactive: -14.6%
CCSC1=NC2(CCN(C(=O)NC3CCCCC3)CC2)N=C1c1ccc(C)c(C)c1	inactive: -18.2% [at 11.5 µM]
CC(C=CC1=C(C)CCCC1(C)C)=CC=CC(C)=CC(=O)O	inactive: -2.23%
Cc1ccc(NC(=O)[C@H](Cc2ccccc2)N2Cc3ccccc3C2=O)cc1	inactive: -8.52%
